# Laboratory results taken from the supplement of paper PMC8728848.
# Some of the results follow.
# Legend:
# Assay in all cases: glycan array binding signal (z-score within array); higher = stronger binding
# Details in all cases: glycan notation: IUPAC condensed, linker removed
# [1] = biological target: Neu5Ac(a2-6)Gal(b1-4)GlcNAc(b1-3)Gal(b1-4)GlcNAc(b1-3)GalNAc
# Procedure, shortened: (§1)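 Negative Z-scores can be read as non-binding. The Z-score is calculated within each array and then averaged across arrays of one protein sequence at different concentrations or buffers and across linkers. Arrays, 3228 in all, were curated from the Consortium for Functional Glycomics database and kept only where the protein sequence was available.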
# [2] = biological target: Neu5Ac(a2-6)Gal(b1-4)GlcNAc(b1-3)Gal(b1-4)GlcNAc(b1-3)[Neu5Ac(a2-6)Gal(b1-4)GlcNAc(b1-3)Gal(b1-4)GlcNAc(b1-6)]GalNAc
# Procedure, shortened: as §1
# [3] = biological target: Neu5Ac(a2-6)Gal(b1-4)GlcNAc(b1-3)Gal(b1-4)GlcNAc(b1-6)[Gal(b1-3)]GalNAc
# Procedure, shortened: as §1
# [4] = biological target: Neu5Ac(a2-6)Gal(b1-4)GlcNAc(b1-3)Gal(b1-4)[Fuc(a1-3)]GlcNAc(b1-3)Gal(b1-4)[Fuc(a1-3)]GlcNAc
# Procedure, shortened: as §1
# [5] = biological target: Neu5Ac(a2-6)Gal(b1-4)GlcNAc(b1-3)GalNAc
# Procedure, shortened: as §1
# [6] = biological target: Neu5Ac(a2-6)Gal(b1-4)GlcNAc(b1-3)[Neu5Ac(a2-6)Gal(b1-4)GlcNAc(b1-6)]GalNAc
# Procedure, shortened: as §1
# [7] = biological target: Neu5Ac(a2-6)Gal(b1-4)GlcNAc(b1-6)GalNAc
# Procedure, shortened: as §1
# [8] = biological target: Neu5Ac(a2-6)Gal(b1-4)GlcNAc(b1-6)[Gal(b1-3)GlcNAc(b1-3)]Gal(b1-4)Glc
# Procedure, shortened: as §1
# [9] = biological target: Neu5Ac(a2-6)Gal(b1-4)GlcNAc(b1-6)[Gal(b1-3)]GalNAc
# Procedure, shortened: as §1
# [10] = biological target: Neu5Ac(a2-6)Gal(b1-4)GlcNAc6S
# Procedure, shortened: as §1
# Neu5Ac(a2-6)GalNAc = biological target: Neu5Ac(a2-6)GalNAc
# Procedure, shortened: as §1
# [11] = biological target: Neu5Ac(a2-6)GalNAc(b1-4)GlcNAc
# Procedure, shortened: as §1
# [12] = biological target: Neu5Ac(a2-6)GalNAc(b1-4)GlcNAc6S
# Procedure, shortened: as §1
# [13] = biological target: Neu5Ac(a2-6)GlcNAc(b1-4)GlcNAc
# Procedure, shortened: as §1
# [14] = biological target: Neu5Ac(a2-6)GlcNAc(b1-4)GlcNAc(b1-4)GlcNAc
# Procedure, shortened: as §1
# Neu5Ac(a2-8)Neu5Ac = biological target: Neu5Ac(a2-8)Neu5Ac
# Procedure, shortened: as §1
# [15] = biological target: Neu5Ac(a2-8)Neu5Ac(a2-3)Gal(b1-3)GalNAc(b1-4)[Neu5Ac(a2-3)]Gal(b1-4)Glc
# Procedure, shortened: as §1
# [16] = biological target: Neu5Ac(a2-8)Neu5Ac(a2-3)Gal(b1-3)GalNAc(b1-4)[Neu5Ac(a2-8)Neu5Ac(a2-3)]Gal(b1-4)Glc
# Procedure, shortened: as §1
# [17] = biological target: Neu5Ac(a2-8)Neu5Ac(a2-3)Gal(b1-4)Glc
# Procedure, shortened: as §1
# [18] = biological target: Neu5Ac(a2-8)Neu5Ac(a2-3)Gal(b1-4)GlcNAc
# Procedure, shortened: as §1
# [19] = biological target: Neu5Ac(a2-8)Neu5Ac(a2-3)[Gal(b1-3)GalNAc(b1-4)]Gal(b1-4)Glc
# Procedure, shortened: as §1
# [20] = biological target: Neu5Ac(a2-8)Neu5Ac(a2-3)[GalNAc(b1-4)]Gal(b1-4)Glc
# Procedure, shortened: as §1
# [21] = biological target: Neu5Ac(a2-8)Neu5Ac(a2-8)Neu5Ac
# Procedure, shortened: as §1
# [22] = biological target: Neu5Ac(a2-8)Neu5Ac(a2-8)Neu5Ac(a2-3)Gal(b1-4)Glc
# Procedure, shortened: as §1
# [23] = biological target: Neu5Ac(a2-8)Neu5Ac(a2-8)Neu5Ac(a2-3)[Gal(b1-3)GalNAc(b1-4)]Gal(b1-4)Glc
# Procedure, shortened: as §1
# [24] = biological target: Neu5Ac(a2-8)Neu5Ac(a2-8)Neu5Ac(a2-3)[GalNAc(b1-4)]Gal(b1-4)Glc
# Procedure, shortened: as §1
# [25] = biological target: Neu5Ac(a2-8)Neu5Ac(a2-8)Neu5Ac(a2-8)Neu5Ac(a2-3)[GalNAc(b1-4)]Gal(b1-4)Glc
# Procedure, shortened: as §1
# [26] = biological target: Neu5Ac(a2-8)Neu5Gc(a2-3)Gal(b1-4)GlcNAc
# Procedure, shortened: as §1
# [27] = biological target: Neu5Ac(b2-6)Gal(b1-4)GlcNAc
# Procedure, shortened: as §1
# Neu5Ac(b2-6)GalNAc = biological target: Neu5Ac(b2-6)GalNAc
# Procedure, shortened: as §1
# [28] = biological target: Neu5Ac9Ac(a2-3)Gal(b1-3)GlcNAc
# Procedure, shortened: as §1
# [29] = biological target: Neu5Ac9Ac(a2-3)Gal(b1-4)GlcNAc
# Procedure, shortened: as §1
# [30] = biological target: Neu5Ac9Ac(a2-6)Gal(b1-4)GlcNAc
# Procedure, shortened: as §1
# [31] = biological target: Neu5Gc(a2-3)Gal(b1-3)GlcNAc
# Procedure, shortened: as §1
# [32] = biological target: Neu5Gc(a2-3)Gal(b1-3)[Fuc(a1-4)]GlcNAc
# Procedure, shortened: as §1
# Neu5Gc(a2-3)Gal(b1-4)Glc = biological target: Neu5Gc(a2-3)Gal(b1-4)Glc
# Procedure, shortened: as §1
# [33] = biological target: Neu5Gc(a2-3)Gal(b1-4)GlcNAc
# Procedure, shortened: as §1
# [34] = biological target: Neu5Gc(a2-3)Gal(b1-4)GlcNAc(b1-3)Gal(b1-4)GlcNAc(b1-2)Man(a1-3)[Neu5Gc(a2-3)Gal(b1-4)GlcNAc(b1-3)Gal(b1-4)GlcNAc(b1-2)Man(a1-6)]Man(b1-4)GlcNAc(b1-4)GlcNAc
# Procedure, shortened: as §1
# [35] = biological target: Neu5Gc(a2-3)Gal(b1-4)[Fuc(a1-3)]GlcNAc
# Procedure, shortened: as §1
# [36] = biological target: Neu5Gc(a2-6)Gal(b1-4)GlcNAc
# Procedure, shortened: as §1
# Neu5Gc(a2-6)GalNAc = biological target: Neu5Gc(a2-6)GalNAc
# Procedure, shortened: as §1
# [37] = biological target: Neu5Gc(a2-8)Neu5Ac(a2-3)Gal(b1-4)GlcNAc
# Procedure, shortened: as §1
# [38] = biological target: Neu5Gc(a2-8)Neu5Gc(a2-3)Gal(b1-4)GlcNAc
# Procedure, shortened: as §1
# [39] = biological target: Neu5Gc(a2-8)Neu5Gc(a2-3)Gal(b1-4)GlcNAc(b1-3)Gal(b1-4)GlcNAc
# Procedure, shortened: as §1
# [40] = biological target: Neu5Gc(a2-8)Neu5Gc(a2-6)Gal(b1-4)GlcNAc
# Procedure, shortened: as §1
# [41] = biological target: Neu5Gc(b2-6)Gal(b1-4)GlcNAc
# Procedure, shortened: as §1
binder,measurement,setting,value
PX9961T-pdi-555-33-555 (Parabacteroides distasonis) (protein) FDEETAFQSPTLVYVNTVASLYNNMFKIMGNDRHVYDLNTFSSDEAMLPCRIGDWEDGGLWQNIFLHRWGTMNDLTKNSWDFLYEQIGKCNQSVDKLQAFAEEQPDVEYFKVYLEEVRAVRAFFYYELLDLFARVPLVTSSTTPMSEVKQSERSVVFNFVRSELEEALPYLSDNRSNQKGEYYGRITKPVAYMILAKLALNAEVYADDNWTDGNRPAGKNIKFTVDGKEMNAWEATIAYVDKLEALGYKLQGNFSENFAVANETSVENIFTVPMDPVAYPDAKDYNLVRTRHYDHATAYGQSGWNGSCATVKAMNVFKFGTADEDPRCKLTYFTGEVTGPDGKTIYTEWDGQKVPLKYEPNAPKVYMDASDGLLVKTAGARMAKYEFDQNAQDGGNLHGNDCVIFRFADALLMKAEAKIRLGQNGDDEVNQVRNRVGAKPLQNVTLDTLLDERMLELAWEGVRRQDLIRFGKFTEATVDRYVGVKHFASSLDYQEDKTGYTTVFSIYADILSLNPNLTQNPGY,glycan array binding signal (z-score),[1],-0.229
same,glycan array binding signal (z-score),[2],1.82
same,glycan array binding signal (z-score),[3],-0.675
same,glycan array binding signal (z-score),[4],0.003
same,glycan array binding signal (z-score),[5],0.302
same,glycan array binding signal (z-score),[6],-0.504
same,glycan array binding signal (z-score),[7],-0.494
same,glycan array binding signal (z-score),[8],-0.277
same,glycan array binding signal (z-score),[9],-0.141
same,glycan array binding signal (z-score),[10],0.399
same,glycan array binding signal (z-score),Neu5Ac(a2-6)GalNAc,0.008
same,glycan array binding signal (z-score),[11],-0.397
same,glycan array binding signal (z-score),[12],0.324
same,glycan array binding signal (z-score),[13],-0.085
same,glycan array binding signal (z-score),[14],-0.34
same,glycan array binding signal (z-score),Neu5Ac(a2-8)Neu5Ac,-0.54
same,glycan array binding signal (z-score),[15],-0.376
same,glycan array binding signal (z-score),[16],0.304
same,glycan array binding signal (z-score),[17],-0.001
same,glycan array binding signal (z-score),[18],-0.039
same,glycan array binding signal (z-score),[19],0.488
same,glycan array binding signal (z-score),[20],-0.668
same,glycan array binding signal (z-score),[21],-0.792
same,glycan array binding signal (z-score),[22],-0.16
same,glycan array binding signal (z-score),[23],-0.427
same,glycan array binding signal (z-score),[24],-0.182
same,glycan array binding signal (z-score),[25],-0.387
same,glycan array binding signal (z-score),[26],20.7
same,glycan array binding signal (z-score),[27],-0.119
same,glycan array binding signal (z-score),Neu5Ac(b2-6)GalNAc,-0.095
same,glycan array binding signal (z-score),[28],-0.047
same,glycan array binding signal (z-score),[29],-0.106
same,glycan array binding signal (z-score),[30],-0.648
same,glycan array binding signal (z-score),[31],-0.258
same,glycan array binding signal (z-score),[32],-0.226
same,glycan array binding signal (z-score),Neu5Gc(a2-3)Gal(b1-4)Glc,-0.034
same,glycan array binding signal (z-score),[33],-0.278
same,glycan array binding signal (z-score),[34],1.06
same,glycan array binding signal (z-score),[35],0.358
same,glycan array binding signal (z-score),[36],0.432
same,glycan array binding signal (z-score),Neu5Gc(a2-6)GalNAc,-0.31
same,glycan array binding signal (z-score),[37],-0.286
same,glycan array binding signal (z-score),[38],0.008
same,glycan array binding signal (z-score),[39],0.171
same,glycan array binding signal (z-score),[40],0.075
same,glycan array binding signal (z-score),[41],-0.307
